Measured values taken from PubChem BioAssay AID504832 (National Center for Advancing Translational Sciences (NCATS), 2011).
Hit rate of the full screen: of about 310,000 compounds, about 18,000 (5.8%) were called active. The inconclusive results got no clear call from the source; some entries with a clear call stand among them for comparison. The call rests on the fitted dose curve; in most records, active means well fitted inhibition curve with a large enough effect; inconclusive means small, poorly fitted or top-dose-only effect, or another doubt; inactive means no such curve, though single readings can be large or run the other way. Potencies of inconclusive entries are left out as doubtful fits.
On the % scale 0 is the no-effect control and ±100 the full control effect; potency means the concentration at half of the fitted maximal effect; tags describe the fitted curve by direction and shape.

Assay: Primary qHTS for delayed death inhibitors of the malarial parasite plastid, 48 hour incubation
Settings: P. falciparum luciferase growth in erythrocytes; series mostly up to 28.7 µM; activity change, negative = inhibition: at the top concentration
Method in brief: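 A one-generation exposure of luciferase-tagged malaria parasites in RPMI 1640/Albumax erythrocyte culture, 37 C and 5% CO2. Inhibition is inferred from decreased luminescence after adding detection reagent.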
In the case of `COc1ccc(C2c3cc(OC)c(OC)cc3CCN2C(=O)c2ccccc2Br)cc1OC` (configuration not stated), the Potency is reported as active: 11.7 µM.
With `COC(=O)c1c(C)noc1-c1snnc1C` the “activity change, negative = inhibition” value was inactive: -4.14%.
In the case of `CC(=O)c1ccc(S(=O)(=O)N2CCN(CC(=O)Nc3ccccc3C(=O)NC3CC3)CC2)cc1`, the Potency is reported as inconclusive [inhibitor, single point].
For `O=C(NCc1ccco1)C1(c2ccccc2)CCCC1`, the “activity change, negative = inhibition” value was inactive: -3.2%.
In the case of `O=C(CC(SCCO)c1ccc(F)cc1)c1ccco1` (configuration not stated), the Potency is reported as inconclusive [inhibitor, partial curve, poor fit].
In the case of `COc1ccc(N(C)S(=O)(=O)c2cccc(C(=O)NCC3CCCCC3)c2)cc1`, the Potency is reported as inconclusive [inhibitor, partial curve, poor fit].
With `COCC(C)NC(C(=O)Nc1cccc(C(C)=O)c1)c1ccccc1` (configuration not stated) the Potency was inconclusive [inhibitor, single point].
For `CC(=O)N(CCc1ccccc1C)Cc1cc2cc3c(cc2[nH]c1=O)OCO3`, the “activity change, negative = inhibition” value was inactive: 1.89%.
For `COc1ccc(-c2nc3ncccn3c2Br)cc1`, the “activity change, negative = inhibition” value was inactive: 134%.
In the case of `O=C(CCc1nnc2n(Cc3ccc(F)cc3)c(=O)c3ccccc3n12)NCCN1CCOCC1`, the Potency is reported as inconclusive [inhibitor, partial curve, poor fit].
For `COc1cc(-c2cc(OC)c3c(C)oc(C)c3c(=O)c2)ccc1O`, the Potency was inconclusive [inhibitor, partial curve].
With `Cc1ccc(C)c(NC(=O)NNS(=O)(=O)c2ccc(C)c(C)c2)c1` the “activity change, negative = inhibition” value was inactive: 39.8%.
In the case of `COc1ccccc1C(=O)N(Cc1sccc1C)C1CCS(=O)(=O)C1` (configuration not stated), the “activity change, negative = inhibition” value is reported as inactive: 1.63%.
In the case of `COc1ccc([C@@H]2[C@@H]3C(=O)N(C(C)(C)C)C(=O)[C@@H]3[C@]3(Cc4ccccc4)C(=O)N(c4cccc(Br)c4)C(=O)N23)cc1`, the Potency is reported as active: 2.62 µM.
In the case of `Cc1cc(C)cc(NC(=S)NCc2cccn2C)c1`, the Potency is reported as inconclusive [inhibitor, full curve, poor fit].
In the case of `CN1CCN(S(=O)(=O)c2cccc(C(=O)N(C)CC(=O)Nc3ccc(F)c(F)c3F)c2)CC1`, the Potency is reported as inconclusive [inhibitor, single point].
With `CC(=O)N=c1sccn1CC(=O)c1ccc([N+](=O)[O-])cc1` the “activity change, negative = inhibition” value was inactive: 5.31%.
For `Cc1cccc(N2CCN(S(=O)(=O)c3c(C(=O)N4CCCCC4)c(C)n(C)c3C)CC2)c1C`, the Potency was inconclusive [inhibitor, partial curve].
With `COc1cc(NC(=O)C2CCCN(S(=O)(=O)c3ccc4[nH]c(=O)ccc4c3)C2)cc(OC)c1` (configuration not stated) the Potency was inconclusive [inhibitor, single point].
For `COc1ccc(/C=C2\C(=O)N(Cc3ccc(F)cc3)CC(=O)N2Cc2ccccc2)cc1`, the Potency was active: 10.4 µM.
With `Cc1cc(CNC(=O)C2CCC(=O)N(Cc3cccc(C(F)(F)F)c3)C2)no1` (configuration not stated) the “activity change, negative = inhibition” value was inactive: 1.06%.
For `CC(C)CCN(C(=O)CCCSc1nc2ccccc2[nH]1)c1c(N)n(Cc2ccccc2)c(=O)[nH]c1=O`, the Potency was inconclusive [inhibitor, partial curve].
For `Cc1cccc(OCc2nnc(SCC(=O)N3c4ccccc4CC3C)n2C)c1C` (configuration not stated), the Potency was inconclusive [inhibitor, single point].
With `CCc1ccc(/C(C)=N/NS(=O)(=O)c2ccc(OC)cc2)s1` the “activity change, negative = inhibition” value was inactive: 30%.
For `COc1ccc(NC(=O)c2ccccc2-c2ccc(C(F)(F)F)cc2)cc1S(=O)(=O)N1CCOCC1`, the Potency was inconclusive [inhibitor, partial curve, poor fit].
For `Cc1ccc(NC(=O)NCCN2CCN(C(=O)Nc3ccc(C)cc3)CC2)cc1`, the Potency was inconclusive [inhibitor, partial curve].
For `Cc1ccc2nc(CCc3ccc(N)cc3)[nH]c2c1`, the Potency was inconclusive [inhibitor, full curve, poor fit].
In the case of `O=C(NCc1cccnc1)/C(=C/c1ccc(-c2cccc(Cl)c2)o1)S(=O)(=O)c1ccccc1`, the Potency is reported as active: 13.1 µM.
With `Cc1cc(C)nc(SCc2ccc(C(=O)N/N=C/c3cccc(O)c3O)cc2)n1` the Potency was active: 10.4 µM.
For `COCCn1c(SCC(=O)Nc2ccc(Cl)cn2)nnc1-c1ccncc1`, the “activity change, negative = inhibition” value was inactive: -5.28%.
In the case of `COc1ccc(N2CC(C(=O)N3CCN(Cc4ccc5c(c4)OCO5)CC3)CC2=O)cc1` (configuration not stated), the “activity change, negative = inhibition” value is reported as inactive: -4.09%.
For `Cc1ccc(-c2ccc(C(=O)Nc3ccccc3)o2)c2ccccc12`, the “activity change, negative = inhibition” value was inactive: -9.38%.
For `CC1CCN(c2c(NCc3ccc(C(=O)N4c5ccccc5CC4C)cc3)c(=O)c2=O)CC1` (configuration not stated), the Potency was inconclusive [inhibitor, partial curve].
For `COc1ccc(NC(=O)C23CC4CC(C2)CC(c2ccc(C)cc2)(C4)C3)cc1`, the Potency was inconclusive [inhibitor, single point].
With `O=C(c1cccc(Oc2ccccc2)c1)N1CCOCC1` the Potency was inconclusive [inhibitor, full curve, poor fit].
With `C=CCN(CC=C)Cc1c(C)[nH]c2ccc(C(=O)OCC)cc2c1=O` the Potency was inconclusive [inhibitor, single point].
For `CCOc1ccc(N(CC(=O)NCCc2ccccc2)C(=O)CCC(=O)Nc2cc(C)ccn2)cc1`, the Potency was active: 4.65 µM.
For `COCCNC(=O)c1ccccc1NC(=O)c1ccccc1N(C)S(=O)(=O)c1ccccc1`, the Potency was inconclusive [inhibitor, single point].
For `CCc1ccccc1N1C(=O)CN(Cc2cc(OC)c(OC)c(OC)c2)C1=S`, the Potency was active: 5.22 µM.
For `CCC(C)(C)NC(=O)c1cc([N+](=O)[O-])ccc1N1CCCCC1`, the Potency was inconclusive [inhibitor, single point].
In the case of `Cc1ccc(S(=O)(=O)NCC(=O)NCC(=O)OC(C(=O)NC(N)=O)C(C)C)cc1C` (configuration not stated), the “activity change, negative = inhibition” value is reported as inactive: 2.38%.
With `C#CC(CC)(CC)NC(=S)Nc1cccc(C(C)=O)c1` the Potency was inconclusive [inhibitor, single point].
In the case of `COc1ccc(N2C(=O)CC(NNC(=O)c3cc(C)oc3C)C2=O)cc1` (configuration not stated), the “activity change, negative = inhibition” value is reported as inactive: -20.3%.
With `COc1ccc(CCNC(=O)COC(=O)COc2ccc(Cl)cc2)cc1OC` the Potency was inconclusive [inhibitor, full curve, poor fit].
In the case of `COC(=O)C1C2c3ccccc3OC1(C)N=c1s/c(=C/c3cnn(C)c3)c(=O)n12` (configuration not stated), the Potency is reported as inconclusive [inhibitor, single point].
For `COc1cccc(NC(=S)N(Cc2ccc(C)cc2)Cc2ccccn2)c1`, the Potency was inconclusive [inhibitor, single point].
In the case of `CCCCc1ccc(NC(=O)C(=O)NCCN2CCN(Cc3ccc([N+](=O)[O-])cc3)CC2)cc1`, the Potency is reported as inconclusive [inhibitor, partial curve, poor fit].
For `COc1ccc(-c2c(-c3cc(OC)cc(OC)c3)n(C)c3ccc(-c4ccc(S(N)(=O)=O)cc4)cc23)cc1`, the Potency was active: 13.1 µM.
For `Cc1cccc(N2CCN(C(=O)C3CCN(S(=O)(=O)N4CCOCC4)CC3)CC2C)c1` (configuration not stated), the “activity change, negative = inhibition” value was inactive: -14.9%.
For `C=CCn1c(SCc2c(C)noc2C)nc2cc(C(=O)O)ccc2c1=O`, the “activity change, negative = inhibition” value was inactive: -6.95%.
With `O=C(NCc1ccccc1)c1ccc(N2CCC3(CC2)CC(c2ccccc2)=NO3)c([N+](=O)[O-])c1` the Potency was inconclusive [inhibitor, partial curve, poor fit].
With `CCc1ccc(CN2CCCC(C(=O)Nc3ccc(-c4cscn4)cc3)C2)o1` (configuration not stated) the Potency was inconclusive [inhibitor, single point].
In the case of `COc1ccc(NC(=S)NC23CC4CC(CC(C4)C2)C3)cc1OC`, the Potency is reported as inconclusive [inhibitor, partial curve].
In the case of `COCCN(C(=O)c1ccc(N2CCCC2=O)cc1)c1c(N)n(CC(C)C)c(=O)[nH]c1=O`, the Potency is reported as inconclusive [inhibitor, single point].
For `CCOC(=O)C1=C(C)NC2=C(C(=O)C(C(=O)OCC)C(c3ccccc3OC)C2)C1c1ccccn1` (configuration not stated), the Potency was active: 4.15 µM.
In the case of `COC(=O)c1ccccc1NC(=O)N1c2ccccc2CC1C` (configuration not stated), the Potency is reported as inconclusive [inhibitor, single point].
In the case of `CCOc1ccc(C(=O)NCC(=O)NC(C)CCc2ccccc2)cc1OCC` (configuration not stated), the Potency is reported as inconclusive [inhibitor, partial curve, poor fit].
In the case of `COc1ccc(C2(CNC(=O)c3cccc([N+](=O)[O-])c3)CCCCC2)cc1OC`, the Potency is reported as inconclusive [inhibitor, partial curve, poor fit].
For `Cc1cc(C)nc(SCC(=O)N/N=C/c2cccn2-c2cccc(C(F)(F)F)c2)n1`, the Potency was active: 9.28 µM.
For `CC(C)(CO)NCc1ccc(Br)cc1`, the “activity change, negative = inhibition” value was inactive: -0.386%.
With `CS(=O)(=O)N(Cc1ccccc1)c1ccc(C(=O)Nc2ccccc2C(=O)O)cc1` the Potency was inconclusive [inhibitor, full curve, poor fit].
For `COc1ccc(CN(C(=O)c2nsc(Cl)c2Cl)C(C(=O)NC2CCCC2)c2ccc(OC)cc2)cc1` (configuration not stated), the Potency was inconclusive [inhibitor, single point].
For `CCOc1ccc(NC(=O)CN2CCN(C(=O)c3ccco3)CC2)cc1S(=O)(=O)N1CCCC1`, the Potency was inconclusive [inhibitor, single point].
In the case of `CCOc1ccccc1-c1noc(CCC(=O)Nc2cccnc2)n1`, the “activity change, negative = inhibition” value is reported as inactive: 10.9%.
For `Cc1ccc(C)c(N(C(=O)c2snc(C(N)=O)c2N)C(C(=O)NCC2CCCO2)c2cccs2)c1` (configuration not stated), the Potency was inconclusive [inhibitor, partial curve, poor fit].
In the case of `CSCCC(NC(=O)c1ccc([N+](=O)[O-])cc1Cl)C(=O)OCC(=O)NCCCc1ccccc1` (configuration not stated), the “activity change, negative = inhibition” value is reported as inactive: 28.2%.
For `Cn1c(=O)cc(C(=O)N/N=C/c2ccc(F)cc2)[nH]c1=O`, the “activity change, negative = inhibition” value was inactive: 8.94%.
